Data: the supplement of paper PMC11417369
± gives the standard deviation of the averaged measurements. This is one part of the list.

The sequences below were run on PfAP2-LT AP2 domain (GST-tagged) (assay: gcPBM binding intensity (ln(normalized median fluorescence intensity)); higher = stronger DNA binding).
How it was run: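 For binding intensity, the highest Masliner-normalised natural-log median intensity across replicate spots of either probe orientation was taken. Protein bound to the array was stained with Alexa488 anti-GST antibody and scanned at 488 nm. The protein, GST-tagged P. falciparum DNA-binding domains from E. coli at about 25 μg on average, had been applied for 1 h to an Agilent 4 × 180k array of primer-extended double-stranded 36-bp intergenic genomic probes and negative controls.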

Row | Sequence | gcPBM binding intensity (ln)
1 | TACAAACTATGATGCACACATATATATCTGTATCCA [CACACA_site4809] | 9.17 ± 0.41
2 | ATTATGTTATATACACGTACGTGTGCTTTATAATTA [XGTACX_site2728] | 9.13 ± 0.37
3 | GGAATTATAATAAATGGTACACATAAAAAAAAAAAA [XGTACX_site8343] | 8.73 ± 0.61
4 | TACTTTACTAATATATATAGGAGAGTATACATGAAA [CACACA_negctrl_site63] | 8.52 ± 0.49
5 | ATAAAGTAGATATTTTGTACGCAGGTTGTATATATT [XGTACX_site1464] | 8.85 ± 0.42
6 | TAATAAATAGGACACACACACATATATATATATTAT [CACACA_site4891] | 9.73 ± 0.16
7 | CATATATAAATATGTATGCACTTTAACAAAATGTAT | 8.63 ± 0.4
8 | ATTCCACCTTAAAACTGTACTTTCTCAATCTTTTAT [XGTACX_site796] | 8.8 ± 0.52
9 | ATATTTATTTATATGTGTACTTATGTTTATATAAAA [XGTACX_site4250] | 8.65 ± 0.42
10 | GGAATAATAAAATTATGTACATAAGAATCATATACT [XGTACX_site6810] | 8.96 ± 0.57
11 | ATATATACTTATATTTGTACACAAAGGTATCTCTAG [XGTACX_site3805] | 8.73 ± 0.49
12 | AAATAATACCAAATGTGTACTTATTTCACTAATAGA [XGTACX_site7571] | 8.72 ± 0.48
13 | AAGCTTTGGTGTTATGCATGCAATTAAACTATTAGT [TGCATGCA_site277] | 8.79 ± 0.23
14 | AATAATATATAATAATGTACAAAAAAAAAAAAAAAA [XGTACX_site4158] | 8.64 ± 0.49
15 | TTTTATTTTTTAGTAGTACACACTTTTTGTACCTTT [CACACA_site599] | 8.95 ± 0.46
16 | CAAACAAACGGACACACACACACACCCAAAAATGAT [CACACA_site5363] | 10.1 ± 0.18
17 | AAAAAAAAAAATCGCTGTACTTCTAAAGGTGTGTTA [XGTACX_site843] | 8.73 ± 0.49
18 | AGTTTTATATAAGCTTGTACTTAATATTATTAAGTA [XGTACX_site5919] | 8.64 ± 0.37
19 | ACGGACTTAAAATACACACACACCAAAAAAAAAAAA [CACACA_site7304] | 9.59 ± 0.3
20 | TTTGATAAATTATACACACACAATATATATAAAATA [CACACA_site2023] | 9.21 ± 0.31
21 | ATAATTTGATGGTTAACACACATATAGATTATAGAT [CACACA_site7200] | 8.96 ± 0.41
22 | TTTTTTTCTTTTTGAGGTACGCATTATTTTATTTGT [XGTACX_site6996] | 8.63 ± 0.67
23 | TGTTATATTTCAAATTGTACTAATCTAATTAATAAA [XGTACX_site604] | 8.1 ± 0.46

Row | Sequence | gcPBM binding intensity (ln)
24 | TTATTATATATATCTCGTACGTGTATACGCCTACCA [XGTACX_site8375] | 8.89 ± 0.6
25 | AAACAATTACACATATGTATGTATATATATATATAT [TGCATGCA_negctrl_site536] | 9.49 ± 0.014
26 | ACAAAGTTTATAGAACGTACATACTTACACATATTT [XGTACX_site556] | 8.83 ± 0.57
27 | AAAAAAATGAAACACACACACACATATATATATATA [CACACA_site1043] | 10.1 ± 0.085
28 | ATTTAAAAAAGAAAGGTGCATTTCAATAATGTAAAA [GTGCAC_site9585] | 8.49 ± 0.52
29 | TCATCTTTTATATGTTGTACGTATTTTCATTTATAT [XGTACX_site4855] | 9.09 ± 0.52
30 | TTGATATTTTTTTTATGTACACATGTTCATATTTTT [XGTACX_site8095] | 8.9 ± 0.42
31 | AAGTAGTGTTAATACTGTACTTATATTTTTTATTAT [XGTACX_site8264] | 8.64 ± 0.52
32 | TCACATATTATCTTTACACACTATAAATAAGTTTTA [CACACA_site7335] | 8.7 ± 0.4
33 | TATACTTCTTATTAAATGAGTAGTATATATTATATA [TGCATGCA_negctrl_site299] | 8.43 ± 0.4
34 | CTATTTCATAAACACACACACACAAACAAACATATA [CACACA_site8234] | 9.95 ± 0.33
35 | CTAAAATACGAACACACACACACATATAAATAAATA [CACACA_site7872] | 10.2 ± 0.33
36 | AAAGATTGCGATGGTTGTACTTTTCTATATTTTTTT [XGTACX_site3492] | 8.94 ± 0.33
37 | AAGTACAAATTTAATAAAAATGAAACAAATATGTAT [TGCATGCA_negctrl_site94] | 8.79 ± 0.45
38 | TTTTTTAAAAGAAAATAAAAAATAAGCATAATATGA [CACACA_negctrl_site1574] | 8.21 ± 0.56
39 | AAGGGTTATTTGATATGTACTTATATATATATATAA [XGTACX_site1659] | 8.78 ± 0.29
40 | AAGGTGGAAACAATTACACACACACTAATAAAAAAA [CACACA_site9051] | 9.68 ± 0.5
41 | TAAAAAAAGGAAAACATACAATTCTATTTTTCAATA [CACACA_negctrl_site474] | 8.24 ± 0.52
42 | AAATTAAAAAAGAATATACACACCAAAACTGTTTGT [CACACA_site958] | 8.84 ± 0.45
43 | TATATAAATAGATACACACATACATACATACATACA [CACACA_site260] | 9.61 ± 0.37
44 | TATAATAATACTTATTGTACGATTAGCTTAATTCGT [XGTACX_site15] | 8.63 ± 0.38
45 | TAATTTTAAATATCTTCACACATTATATTTTTATAT [CACACA_site5411] | 8.74 ± 0.49
46 | ACCATACATACATACACACACACACGCATATTTATA [CACACA_site7386] | 10.1 ± 0.29

Row | Sequence | gcPBM binding intensity (ln)
47 | ATGGAATTTTTAGAATATGGATAATGTTACTTAAGT [CACACA_negctrl_site494] | 8.54 ± 0.35
48 | AAAAACCATGGGCACACACACATAATATATAATATA [CACACA_site1425] | 9.75 ± 0.47
49 | GTTATATATATATATATATATATATATATTTTTTTT [GTGCAC_negctrl_site597] | 9.43 ± 0.14
50 | TATATCGTTAATTATACACACATAAAATTAAACTTT [CACACA_site1274] | 8.79 ± 0.35
51 | AAGAGAAATATATATTGTACAATAATTTTATTTGGT [XGTACX_site7642] | 8.71 ± 0.4
52 | ATATCCATAATAAAAACATGCAACAGAAAAAAAAAA [TGCATGCA_site497] | 8.88 ± 0.42
53 | TATATATTAATATTTACACACATGCGCACCCATAAA [CACACA_site2410] | 9.28 ± 0.38
54 | TATTTATATTCCTTTACACACTCCATCTTATATCCA [CACACA_site3604] | 8.98 ± 0.54
55 | ACCGTGGGAGGACACACACACACACCCACATATATA [CACACA_site4339] | 9.97 ± 0.4
56 | ATTTTTGTTATTACATGTACCCATAATTATTATTAA [XGTACX_site3558] | 9.01 ± 0.38
57 | AACAATTATTTGTCGACACACGTATATGTTATTTAG [CACACA_site5046] | 9.28 ± 0.41
58 | ACAAAAAAATGAAAAGAAAAAGATATACCCCAATAT [CACACA_negctrl_site509] | 9.26 ± 0.35
59 | TACGGTTGTTTATTTTGTACGTAAAAAATATATTAT [XGTACX_site8393] | 8.67 ± 0.4
60 | TATTAATTAAAAAAATGTACATAATTATAAATTTTT [XGTACX_site7994] | 8.39 ± 0.45
61 | TAATATACATATATATGTACATATATATATATATAT [XGTACX_site2684] | 9.465 ± 0.035
62 | TTCCAAAAAATTATTACACACATATGAGCACATATA [CACACA_site4543] | 8.9 ± 0.35
63 | ATATTATTCTTATATTCACACAGTTTATATTTCCGT [CACACA_site5653] | 9.15 ± 0.5
64 | AAATTACATACACGCGCACACACAAAAAAAAAAAAA [CACACA_site1335] | 9.55 ± 0.47
65 | TTAAAAAATTATTGTAGTACATAGGAAATGAAAAAA [XGTACX_site155] | 8.51 ± 0.5
66 | TAAATTAAATATTATAAACACACATATATATTATTT [CACACA_site8189] | 8.56 ± 0.43
67 | ATATAAATAAATACAACACACATGTCATATCTAAAT [CACACA_site7533] | 9.12 ± 0.39
68 | TATATACATAAAATTTGTACATATATATATATATAT [XGTACX_site3214] | 9.48 ± 0.014
69 | AAAAAAAAAAAATGAGCACACATAAATAAAAACAAA [CACACA_site8447] | 9.05 ± 0.57

Row | Sequence | gcPBM binding intensity (ln)
70 | AATTTAAATATTTGTTGTACGTATTTATATATTCTT [XGTACX_site3623] | 8.93 ± 0.39
71 | AATATATAAACACGTACACACACATATATGTATATA [CACACA_site9168] | 9.5 ± 0.26
72 | TATTATATCTTATATGTATATTCCCACAAATTATAT [GTGCAC_negctrl_site362] | 8.61 ± 0.48
73 | ATAATATATAAACACACACACATATATAAATACATT [CACACA_site4466] | 9.83 ± 0.11
74 | CATGCCGTTAAATTATGTACTTATTATTTTAATATG [XGTACX_site4209] | 8.81 ± 0.52
75 | TGGCAAAATAGGCACACACACATATACATATATATT [CACACA_site1059] | 9.69 ± 0.48
76 | ATATTATAGTATATAACACACATTTTTCATAACACT [CACACA_site6331] | 8.97 ± 0.41
77 | TATATAATTAAAATAACACACATATATAAAAATATA [CACACA_site2990] | 8.87 ± 0.4
78 | TTTAGATAATTCATTACACACATGTATATTTATATA [CACACA_site7602] | 8.91 ± 0.33
79 | TTTTTTTTTTTTTTATGTACGAAAGAAAAGCACATA [XGTACX_site8261] | 8.13 ± 0.41
80 | TAACGAATTTAAATTTGTACATATATAAATATATAA [XGTACX_site2168] | 8.41 ± 0.44
81 | ATCATCTATGTTATTACACACGTTATGTTATTATAA [CACACA_site5502] | 9.2 ± 0.37
82 | ATAATACACGATTATTTTCCCTTTATGTAAATATAT [CACACA_negctrl_site1107] | 8.7 ± 0.47
83 | AAAAAAAAAAAATGTGTGCACATTATTTCAACTTAA | 8.89 ± 0.42
84 | TATATATATAATATTGCACACAAAATTAAAAGTAAA [CACACA_site7889] | 8.94 ± 0.45
85 | TATTTTATCTATTTGTGTACTTATATTTATGCAAAA [XGTACX_site1499] | 8.7 ± 0.35
86 | AAATTATTAAAAAAAAGTACATATATATATATATAT [XGTACX_site8313] | 9.43 ± 0.099
87 | ATAAATAATATATATACACACATATCTATACATATT [CACACA_site487] | 9.03 ± 0.33
88 | TATATTCTTTATAGGTGTACTTAATAAATAAAAAAT [XGTACX_site5378] | 8.3 ± 0.33
89 | TATATATATGTGTTTACACACAATAATGAATTAAAA [CACACA_site4659] | 8.89 ± 0.45
